Reference: the supplement of paper PMC3334620
Whole data set: some 33,000 sequences, median “E-score (-0.5 to 0.5)” near -0.032, cut for the highest 2% near 0.36. Some of the results follow.

biological target: T1, Sko1 (UniProt Q02100); test: PBM E-score (8-mer binding enrichment) (E-score (-0.5 to 0.5)); higher = stronger / more preferred TF binding; most listed sequences are background and not binding sites; settings: protein concentration: 200 nM; construct: GST-full length
T1 sequence: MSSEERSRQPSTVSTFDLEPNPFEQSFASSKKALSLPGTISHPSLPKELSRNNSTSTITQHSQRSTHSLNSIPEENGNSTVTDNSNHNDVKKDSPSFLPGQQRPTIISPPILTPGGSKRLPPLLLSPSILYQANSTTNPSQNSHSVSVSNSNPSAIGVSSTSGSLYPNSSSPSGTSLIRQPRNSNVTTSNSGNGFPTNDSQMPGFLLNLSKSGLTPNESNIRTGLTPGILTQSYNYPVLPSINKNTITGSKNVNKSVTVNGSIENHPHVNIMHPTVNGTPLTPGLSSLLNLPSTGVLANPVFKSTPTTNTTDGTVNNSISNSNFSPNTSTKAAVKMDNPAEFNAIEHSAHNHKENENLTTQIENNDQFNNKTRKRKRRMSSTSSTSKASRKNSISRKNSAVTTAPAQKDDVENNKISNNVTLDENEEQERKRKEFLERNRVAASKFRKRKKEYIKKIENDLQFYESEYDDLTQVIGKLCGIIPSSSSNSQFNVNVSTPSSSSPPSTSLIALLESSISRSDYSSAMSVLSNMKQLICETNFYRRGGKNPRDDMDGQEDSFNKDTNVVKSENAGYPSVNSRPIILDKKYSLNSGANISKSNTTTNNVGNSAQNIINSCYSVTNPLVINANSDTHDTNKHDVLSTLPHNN
Procedure, shortened: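 Each ungapped eight-base word and its reverse complement, pooled, received an E-score from the Universal PBM Analysis Suite. Underlying scans, normalised with masliner, recorded fluorescent anti-GST bound to GST-tagged yeast transcription factors. These were applied at about 100-200 nM to universal all-10-mer Agilent arrays double-stranded by primer extension.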

Going from ACATGGCG to AAGTTAAA, the “PBM E-score” value rises from 0.0993 to 0.211.

First: ATAGGTAG
Second: CGGCATTC
The “PBM E-score” value of the first is higher: 0.0253 for the first, -0.119 for the second.

First: GGACAAAA
Second: GGGGTATA
The “PBM E-score” value of the first is higher: -0.0188 for the first, -0.317 for the second.

First: ATGCACCC
Second: ACATGGAC
The “PBM E-score” value of the first is lower: -0.122 for the first, -0.0373 for the second.

First: AGCCCACA
Second: CACTCGAC
The “PBM E-score” value of the first is higher: -0.186 for the first, -0.243 for the second.

Compared with CTGGGAAG, AAAGGGCC is lower in “PBM E-score” value: -0.183 for the first, -0.208 for the second.

First: CTGAGAAC
Second: CAAATGTC
The “PBM E-score” value of the first is lower: -0.02 for the first, -0.0195 for the second.

Going from TCATTTCA to ATTGGCGC, the “PBM E-score” value falls from 0.181 to 0.0319.

Compared with AACCGCAA, CCAAAGCC is lower in “PBM E-score” value: 0.0628 for the first, -0.186 for the second.

Going from ACACAGTC to CCGTCTAG, the “PBM E-score” value falls from -0.193 to -0.23.

Going from GTCTCTAA to ACTACATA, the “PBM E-score” value rises from 0.106 to 0.198.

First: CTGATGCC
Second: CTTTCTCC
The “PBM E-score” value of the first is higher: -0.122 for the first, -0.317 for the second.

Compared with CTAATCAC, AAGGACTG is lower in “PBM E-score” value: 0.196 for the first, -0.237 for the second.

Going from GCCCTAAC to GTTCCCGA, the “PBM E-score” value falls from -0.0018 to -0.0955.

First: CTCATGGC
Second: TAGCTATA
The “PBM E-score” value of the first is lower: -0.0953 for the first, 0.00695 for the second.

Compared with ACGTGCGA, CTCACCAA is lower in “PBM E-score” value: 0.301 for the first, 0.00581 for the second.

Compared with ATGGAATC, CAGCACCC is lower in “PBM E-score” value: 0.232 for the first, -0.188 for the second.

Going from GCTGGCAC to ATCAAGAG, the “PBM E-score” value rises from -0.114 to 0.0204.

Going from ATTTGTCC to ATTGGACC, the “PBM E-score” value falls from 0.206 to -0.27.

Compared with ATGAATGG, AGGCTCAA is lower in “PBM E-score” value: -0.0491 for the first, -0.14 for the second.

First: CGCAATTC
Second: ACGCGTAA
The “PBM E-score” value of the first is lower: 0.145 for the first, 0.382 for the second.

Compared with CAAAGCGC, ACCCGGAT is lower in “PBM E-score” value: -0.0192 for the first, -0.263 for the second.

Going from CGGACCAG to ACACGGCG, the “PBM E-score” value rises from -0.133 to -0.0435.

First: ACCACAGG
Second: ATCCCGCC
The “PBM E-score” value of the first is higher: -0.272 for the first, -0.341 for the second.

First: ATCTCACG
Second: ATCCTTAG
The “PBM E-score” value of the first is higher: 0.126 for the first, -0.146 for the second.

Going from GGCTATAA to AGATAGAT, the “PBM E-score” value falls from -0.0469 to -0.095.

Compared with GCAACAGA, AACCTCAT is higher in “PBM E-score” value: -0.029 for the first, 0.167 for the second.

First: GTATACGA
Second: AATGAACA
The “PBM E-score” value of the first is higher: 0.194 for the first, 0.14 for the second.

Compared with TTAAACAA, CATCCGGG is lower in “PBM E-score” value: 0.00421 for the first, -0.148 for the second.

First: CAAAAGGC
Second: GGCACGCC
The “PBM E-score” value of the first is higher: -0.222 for the first, -0.268 for the second.

First: CATTTTCC
Second: CATTGATC
The “PBM E-score” value of the first is higher: 0.122 for the first, 0.0657 for the second.

Going from ATGTATAC to CGGGCCTA, the “PBM E-score” value falls from 0.247 to -0.287.

First: GACGAGCC
Second: GAACTTTA
The “PBM E-score” value of the first is higher: 0.00634 for the first, -0.043 for the second.

Compared with CGGCCACA, ACGACCCA is higher in “PBM E-score” value: -0.184 for the first, 0.087 for the second.

Going from GCATGCTA to ACATCTCT, the “PBM E-score” value rises from -0.0193 to 0.0591.

Going from CTAGCTTC to AACATTTG, the “PBM E-score” value rises from -0.177 to -0.0934.

Going from AAAACGCG to GGCAAAAA, the “PBM E-score” value falls from 0.237 to 0.108.

Compared with AGTCGTCA, ACCACCTC is lower in “PBM E-score” value: 0.37 for the first, -0.137 for the second.

First: TGGCCAAA
Second: GGAGGGTA
The “PBM E-score” value of the first is higher: 0.104 for the first, -0.195 for the second.

Compared with CCCTACAA, CGCCAGTA is lower in “PBM E-score” value: 0.0161 for the first, -0.151 for the second.

Going from CAGTTTCC to GATTCGCC, the “PBM E-score” value rises from -0.191 to -0.112.

Compared with GATCGTAC, AAGGTCCG is lower in “PBM E-score” value: -0.115 for the first, -0.248 for the second.

Compared with ACCGGAGC, CGGCATCC is higher in “PBM E-score” value: -0.243 for the first, -0.202 for the second.

Compared with AAGCAGGT, CAACCTCG is higher in “PBM E-score” value: -0.151 for the first, -0.0507 for the second.

First: CGAATACG
Second: CTGTAAAC
The “PBM E-score” value of the first is higher: 0.406 for the first, 0.106 for the second.

Compared with TAGAGGGA, CGTATACC is higher in “PBM E-score” value: -0.0431 for the first, 0.132 for the second.

Going from ACGCCACA to ACCTCCCT, the “PBM E-score” value falls from 0.234 to -0.249.

Going from CTTCCCTC to AGTAAGTC, the “PBM E-score” value rises from -0.257 to -0.144.

First: CCAATCTA
Second: AATCCCGC
The “PBM E-score” value of the first is higher: 0.0203 for the first, -0.112 for the second.

Going from GCCTGACA to CTATCTAC, the “PBM E-score” value rises from -0.113 to 0.0822.

First: TCTGTGCA
Second: TACCAACA
The “PBM E-score” value of the first is lower: 0.00064 for the first, 0.0643 for the second.

First: TGGAGAAA
Second: GGTCAACC
The “PBM E-score” value of the first is higher: -0.157 for the first, -0.29 for the second.

Compared with CCTCAGCC, AGCTTTAA is higher in “PBM E-score” value: -0.226 for the first, 0.14 for the second.

Going from GAATCGTA to GAGAGCAA, the “PBM E-score” value falls from 0.136 to -0.0449.

Compared with AGATTACA, GCTAAACC is lower in “PBM E-score” value: 0.189 for the first, -0.0917 for the second.

First: ACTAAGAC
Second: GTTCGCGA
The “PBM E-score” value of the first is lower: 0.0334 for the first, 0.133 for the second.

First: CTGTCCCA
Second: CTCGTCAA
The “PBM E-score” value of the first is lower: -0.173 for the first, 0.0618 for the second.

First: GAGCCGCC
Second: ACCGAGAC
The “PBM E-score” value of the first is lower: -0.22 for the first, -0.144 for the second.

Going from AGTTATAC to GCATGTCA, the “PBM E-score” value rises from 0.135 to 0.265.

First: GCTTCAAC
Second: CGTCGAAA
The “PBM E-score” value of the first is lower: -0.164 for the first, 0.247 for the second.

Going from GGCCGAAC to CCCTCCGG, the “PBM E-score” value falls from -0.34 to -0.452.

Going from CCAAAGAG to TCGTATAA, the “PBM E-score” value rises from -0.148 to 0.221.

Compared with AAATAACC, AATTTTGG is lower in “PBM E-score” value: 0.0207 for the first, -0.00126 for the second.

Going from GAGGTGAA to CAACCGTG, the “PBM E-score” value falls from 0.033 to -0.089.

Compared with CCCACATC, ACGAGTAC is higher in “PBM E-score” value: -0.141 for the first, 0.222 for the second.

First: ATACGCCA
Second: CACGCCCA
The “PBM E-score” value of the first is higher: 0.329 for the first, 0.0494 for the second.

Going from AAGGAATA to CGGCGGGA, the “PBM E-score” value falls from 0.121 to -0.232.

Going from AGAGGAGG to AGATTGAT, the “PBM E-score” value rises from -0.282 to -0.0863.

First: GCATAGTA
Second: AAGACGTG
The “PBM E-score” value of the first is lower: -0.016 for the first, 0.291 for the second.

Compared with CATGTTGA, GCCGTCTA is lower in “PBM E-score” value: 0.304 for the first, -0.225 for the second.

Compared with ATCTGTCG, CCATGCTA is lower in “PBM E-score” value: 0.0372 for the first, -0.208 for the second.

Going from TCTTCAAA to ATCCCTTA, the “PBM E-score” value rises from 0.052 to 0.0973.

Going from GCCTACCA to CACACCTG, the “PBM E-score” value rises from -0.262 to -0.133.

Going from ATAATGAG to AGGCACGG, the “PBM E-score” value falls from 0.114 to -0.323.

Going from CTCAGTTC to AAACTGAT, the “PBM E-score” value falls from -0.0562 to -0.0582.

First: AAGTCTTA
Second: GTAACAAC
The “PBM E-score” value of the first is lower: 0.0815 for the first, 0.146 for the second.

First: GGCGTGCA
Second: GCTAACAA
The “PBM E-score” value of the first is lower: -0.0639 for the first, -0.0144 for the second.

First: CTAACAAA
Second: TACACACA
The “PBM E-score” value of the first is lower: 0.0575 for the first, 0.285 for the second.

First: GTGCATGA
Second: ACCATAGA
The “PBM E-score” value of the first is higher: 0.133 for the first, -0.123 for the second.

First: CGTCGATC
Second: CTCATCGC
The “PBM E-score” value of the first is higher: 0.219 for the first, -0.11 for the second.

First: AACCAGTA
Second: CAACTTAA
The “PBM E-score” value of the first is lower: -0.088 for the first, 0.114 for the second.

First: CCTGTGCG
Second: CGATGTTA
The “PBM E-score” value of the first is lower: -0.0469 for the first, 0.124 for the second.

First: AGTAGAAA
Second: CACTTACC
The “PBM E-score” value of the first is higher: 0.187 for the first, 0.109 for the second.

First: GAAGTAAC
Second: CGGGGAAA
The “PBM E-score” value of the first is lower: 0.0276 for the first, 0.046 for the second.

First: TGCCATAA
Second: GTGCAACA
The “PBM E-score” value of the first is lower: -0.0922 for the first, -0.0712 for the second.

Compared with TACCCTAA, GTGTGATA is higher in “PBM E-score” value: 0.0632 for the first, 0.156 for the second.
